Test results from PubChem BioAssay AID463173 (ICCB-Longwood Screening Facility, Harvard Medical School, 2010).
The whole screen tested about 52,000 compounds, of which about 1,700 (3.3%) were called active. Rule as the data show it: active = survival mostly below about 52% (no sharp cut-off); inactive = mostly above about 56%. The list shows a part of the results.

What follows are compounds tested on Wild type (assay: S. aureus survival, RN4220 and DeltatarO strains – OD600, teichoic acid synthesis inhibitors, primary screen (AID 463173)). Conditions: S. aureus RN4220 wild type/DeltatarO growth, OD600, 18 h, stronger effect = lower value, screened at 18.75 µg/mL (by protocol).
With `O=C(CSc1ncc(-c2ccccc2)[nH]1)Nc1ccccc1` the survival was inactive: 71%. In the case of `CCOc1ccc(NS(=O)(=O)c2c(C)nc3sc(C)c(C)n3c2=O)cc1`, the survival is reported as inactive: 89%. `CCOC(=O)C1CCN(C(=O)c2ccccc2NC(=O)c2nsc3ccccc23)CC1` was tested, and the survival was inactive: 121%. In the case of `O=C(Cn1cnc2ccccc2c1=O)NCc1ccccc1`, the survival is reported as inactive: 105%. `O=C(CCC1N=C2c3ccccc3N=C(SCC(=O)Nc3cccc(Cl)c3)N2C1=O)NCc1ccco1` (configuration not stated) was tested, and the survival was inactive: 63%. With `CC1CCc2c(nc3ncnn3c2NCCc2ccccc2F)C1` (configuration not stated) the survival was inactive: 108%. In the case of `CC(C)N(Cc1ccccc1)C(=O)c1nc(-c2ccc(Cl)cc2)n2c1CCCCC2`, the survival is reported as inactive: 115%. For `CCc1ccc(OCC2c3cc(OC)c(OC)cc3CCN2C(=O)c2ccc(S(=O)(=O)N3CCCC3)cc2)cc1` (configuration not stated), the survival was inactive: 68%. With `CCOC(=O)c1cnc2c(ccc3ccccc32)c1Nc1ccc(N(C)C)cc1` the survival was active: 0%. `CCn1cc(C(=O)NCCCOC(C)C)c(=O)c2cc(S(=O)(=O)N3CCOCC3)ccc21` was tested, and the survival was inactive: 131%. With `COc1cccc(NC(=O)c2c(C)nn(-c3cccc(C)c3)c2-n2cccc2)c1` the survival was active: 0%. In the case of `COc1cccc(CN2C(=O)CN(C3CCCCC3)C(=O)C2c2ccc(OC(C)C)c(OC)c2)c1` (configuration not stated), the survival is reported as inactive: 89%. In the case of `O=C(Cn1ccc2cc(S(=O)(=O)N3CCCCCC3)ccc21)NCc1ccccc1Cl`, the survival is reported as inactive: 73%. `Cc1cc(NC(=O)N2CCC(CN3CCCCCC3)CC2)ccc1Br` was tested, and the survival was inactive: 77%. In the case of `COC(=O)c1ccc2c(=O)n(CCCCCC(=O)NCCc3ccccc3)c(=O)[nH]c2c1`, the survival is reported as inactive: 127%. With `N#Cc1ccc(-c2cccnc2)n(CC(=O)N2CC(=O)Nc3ccccc32)c1=O` the survival was inactive: 119%. In the case of `N#Cc1ccc(C=Nc2ccc(C(N)=O)cc2)cc1`, the survival is reported as inactive: 102%. `O=S(=O)(c1ccc(Cl)cc1)c1nnn2c1nc(NC1CCCC1)c1sccc12` was tested, and the survival was inactive: 79%. `CCC1Sc2ccccc2N(CC(=O)NCc2ccc(C)cc2)C1=O` (configuration not stated) was tested, and the survival was inactive: 79%. In the case of `COc1ccc(-c2nc(Cn3c(=O)cc(C)c4c(C)nn(-c5ccccc5)c43)c(C)o2)cc1OC`, the survival is reported as inactive: 133%. For `Cc1ccc(C(=O)Cn2c(-c3ccccc3)noc2=O)cc1`, the survival was inactive: 126%. `Nc1c(C(=O)Nc2ccccc2Br)sc2nc(-c3cccs3)ccc12` was tested, and the survival was inactive: 67%. For `O=C(CSc1nc2c([nH]c3ccccc32)c(=O)n1-c1ccccc1)Nc1ccc2c(c1)OCO2`, the survival was inactive: 123%. With `Cc1noc2ncnc(N3CCN(c4cccc(C(F)(F)F)c4)CC3)c12` the survival was inactive: 70%. With `Cc1cccn2c(=O)c3cc(C(=O)NCC(C)C)sc3nc12` the survival was inactive: 80%. `COc1ccc(N2CCN(C(CNS(=O)(=O)c3ccc(OC)c(C)c3)c3ccco3)CC2)cc1` (configuration not stated) was tested, and the survival was inactive: 71%. `COc1ccc(C)cc1-n1c(-c2ccc(Cl)cc2)cc2c1CC(C)(C)CC2=O` was tested, and the survival was inactive: 94%. In the case of `Fc1ccc(CN2CCc3nc(N4CCN(c5ccccc5F)CC4)ncc3C2)c(F)c1`, the survival is reported as inactive: 73%. With `CC(C)CNS(=O)(=O)c1ccc(S(=O)(=O)N2CCN(c3ccccc3)CC2)cc1` the survival was inactive: 104%. `Cc1ccc(NC(=O)Cn2c(=O)n(-c3ccc(C)cc3)c(=O)c3c2cnn3C)cc1` was tested, and the survival was inactive: 68%. `Cc1ccc(Cc2nc3ccccc3nc2SCC(=O)N2CCC(C)CC2)cc1` was tested, and the survival was inactive: 77%. In the case of `Cc1ccc(-n2nc(C)c3c(C)c(CCC(=O)NC(C)c4ccccc4)c(C)nc32)cc1` (configuration not stated), the survival is reported as inactive: 76%. With `COc1ccc(CCNC(=O)CCc2cn(Cc3ccccc3Cl)c3ccccc23)c(OC)c1` the survival was inactive: 80%. In the case of `O=C(NCCc1ccc(Cl)cc1)C1CCN(Cc2cc3ccccc3n2Cc2ccccc2)CC1`, the survival is reported as inactive: 89%. In the case of `COc1cccc(C(=O)Nc2ccc3nc(SCC(=O)N(C)c4ccccc4)sc3c2)c1`, the survival is reported as inactive: 87%. With `CCOc1ccc(NC(=O)c2c(C)oc3nc(C)nc(N4CCCC4)c23)cc1` the survival was inactive: 47%. In the case of `Cc1ccc(CNC(=O)c2ccc(CSc3nc4ccncc4n3Cc3ccc(C)cc3)cc2)cc1`, the survival is reported as inactive: 125%. For `Cc1cc(C)c(NC(=O)Cn2c(=O)oc3cc(S(=O)(=O)N4CCCCCC4)ccc32)c(C)c1`, the survival was inactive: 94%. For `COc1ccccc1CCNC(=O)c1cccn1-c1nnc(N2CCCC2)s1`, the survival was inactive: 74%. With `CCOc1ccc(-c2cc(NC(=O)c3ccccc3)c(C(=O)OC)s2)cc1` the survival was inactive: 86%. With `O=C(Nc1ccccc1)c1cccc(N2CCCC2=O)c1` the survival was inactive: 110%. `O=C(CCCOc1ccccc1)NC1CCSC1=O` (configuration not stated) was tested, and the survival was inactive: 105%. In the case of `CC1(C)Oc2ccc3ccc(=O)oc3c2-c2cn[nH]c21`, the survival is reported as inactive: 104%. For `Cc1ccc(Cl)cc1N1CCN(c2ncnc3c2nc2n3CCCC2)CC1`, the survival was inactive: 75%. With `O=C(CN1CCN(c2ncccn2)CC1)N1CCCC1` the survival was inactive: 115%. With `CCCN(C(=O)c1cc(S(=O)(=O)N2CCc3ccccc32)cn1C)c1ccc(OCC)cc1` the survival was inactive: 76%. With `CCOC(=O)c1c(C)[nH]c2c1cc(O)c1ccccc12` the survival was inactive: 88%. With `NC(=O)c1cc2n(n1)C(C(F)(F)F)CC(c1ccc(Cl)cc1)N2` (configuration not stated) the survival was inactive: 116%. In the case of `CCOc1ccc(C2C(C(=O)Nc3ccccc3)=C(C)Nc3nc(-c4ccccc4Cl)nn32)cc1OC` (configuration not stated), the survival is reported as inactive: 79%. With `Cc1ccccc1NC(=O)C(=O)NCC(c1ccc2c(c1)OCO2)N1CCN(c2ccccc2)CC1` (configuration not stated) the survival was inactive: 72%. In the case of `Cc1ccccc1NC(=O)Cn1cc(S(=O)(=O)c2ccccc2)c(=O)c2ccccc21`, the survival is reported as inactive: 105%. With `COc1ccc(NC(=O)c2cc3c(-c4ccccc4F)nn(C)c3s2)c(OC)c1` the survival was inactive: 38%. With `CCOc1ccc(Nc2cc(C)nc3nncn23)cc1` the survival was inactive: 82%. With `CCN1CCN(Cc2c(O)ccc3oc(C)c(C(=O)Nc4cccc(Cl)c4C)c23)CC1` the survival was inactive: 94%. `CCCn1c2ccccc2c2cnn(CC(=O)NCCCN3CCCCC3CC)c(=O)c21` (configuration not stated) was tested, and the survival was inactive: 73%. In the case of `FC(F)(F)c1cccc(N2CCN(c3ncnc4c3nc3n4CCCC3)CC2)c1`, the survival is reported as inactive: 78%. With `CCC(C)NC(=O)c1cc(Sc2cccc(Cl)c2)nc2ccccc12` (configuration not stated) the survival was inactive: 124%.
